The whole screen tested about 270,000 compounds, of which about 620 (0.23%) were called active. This list was built around the results that the source calls inconclusive (neither active nor inactive); the mix of calls is not that of the screen. Calls come from the whole dose curve; as a rule, active = well fitted inhibition curve with a large enough effect in the polarisation, with a control signal flat (not every such curve was filed as active); inconclusive = small, poorly fitted or top-dose-only effect, or effect the other way, or a change in a side signal; inactive = no such curve, though single readings can be large or run the other way; the % refers to the polarisation. A potency beside an inconclusive call is a rough fit, not a confirmed value. A note “side channel” means that the fit belongs to a control or component signal, not to the main read-out.
Target: Menin (Homo sapiens) (UniProt O00255)
UniProt O00255, sequence (O00255 whole entry, looked up): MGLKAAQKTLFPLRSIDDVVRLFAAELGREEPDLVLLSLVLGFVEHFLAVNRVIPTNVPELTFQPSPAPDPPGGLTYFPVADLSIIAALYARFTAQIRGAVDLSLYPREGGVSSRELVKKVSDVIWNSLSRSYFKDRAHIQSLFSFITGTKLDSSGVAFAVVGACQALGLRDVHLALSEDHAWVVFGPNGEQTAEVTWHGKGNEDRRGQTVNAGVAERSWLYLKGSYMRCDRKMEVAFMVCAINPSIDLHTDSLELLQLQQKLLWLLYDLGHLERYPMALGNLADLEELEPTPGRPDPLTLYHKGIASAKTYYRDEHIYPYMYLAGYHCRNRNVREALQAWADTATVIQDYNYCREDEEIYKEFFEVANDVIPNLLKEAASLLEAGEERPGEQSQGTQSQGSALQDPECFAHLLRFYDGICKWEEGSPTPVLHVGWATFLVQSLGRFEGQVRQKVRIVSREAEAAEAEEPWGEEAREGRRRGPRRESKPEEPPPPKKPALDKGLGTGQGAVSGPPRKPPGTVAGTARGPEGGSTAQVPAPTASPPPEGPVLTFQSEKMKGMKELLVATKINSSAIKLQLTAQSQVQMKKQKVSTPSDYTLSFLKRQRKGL
Test: qHTS Assay for Inhibitors Targeting the Menin-MLL Interaction in MLL Related Leukemias: Competition With Texas Red Labeled MLL-derived Mutant Peptide; for FP activity change, negative = inhibition: % of control where 0% means no effect
Settings: fluorescence polarization; FP activity change, negative = inhibition: at 61.6 µM (top of the series)
Potency is the fitted concentration of half-maximal effect; tags give direction and shape of the fitted curve or compound fluorescence and quenching.

SMILES | Potency | FP activity change, negative = inhibition
COc1ccc(S(=O)(=O)Nc2c(C(=O)O)[nH]c3ccc(OC)cc23)c(OC)c1 | inconclusive: 14.1 µM [quencher, side channel, partial curve] | 
Cc1cccc(C(=O)NC(=S)NNC(=O)COc2ccc(Cl)cc2)c1 | inconclusive: 39.8 µM [quencher, side channel, single point] | 
COc1ccccc1-c1nnc2n1N=C(c1ccc(O)c(O)c1)CS2 | inconclusive: 39.8 µM [inhibitor, single point] | 
Cc1ccccc1NC(=O)CN1C(=O)C2C3CC(C(Br)C3Br)C2C1=O (centres undefined) | inconclusive: 25.1 µM [quencher, side channel, single point] | 
O=C1C2=C(S[C@@H]3O[C@H](CO)[C@@H](O)[C@H](O)[C@H]3O2)C(=O)c2ccccc21 | inconclusive: 31.6 µM [inhibitor, partial curve] | 
COC(=O)c1ccc(NC(=O)N(c2ccccc2)c2ccccc2)cc1 | inconclusive: 35.5 µM [fluorescent, side channel, single point] | 
CCNS(=O)(=O)c1ccc(NC(=O)c2ccc(Cn3cc([N+](=O)[O-])cn3)o2)cc1 | inconclusive: 17.8 µM [inhibitor, partial curve] | 
O=C(Nc1ccc(C(F)(F)F)cc1)C1CCN(S(=O)(=O)c2ccc(N3CCCC3=O)cc2)CC1 | inconclusive: 39.8 µM [fluorescent, single point] | 
COC(=O)c1ccc(C(=O)Nc2ccc3c(c2)C(=O)NC3=O)cc1 |  | inactive: 3.18%
N#C/C(=C(/O)c1ccc2c(c1)OCO2)c1nc2cc(C(F)(F)F)ccc2s1 | inconclusive: 3.98 µM [quencher, side channel, partial curve] | 
S=C(Nc1ccc(Br)cc1Cl)NC1CCN(Cc2ccccc2)CC1 | inconclusive: 28.2 µM [quencher, side channel, single point] | 
CC1=C(C#N)c2nc(N)c(C#N)c(C)c2/C1=C\c1ccc(-c2ccccc2C(=O)O)o1 | inconclusive: 39.8 µM [inhibitor, single point] | 
CCn1c2ccccc2c2nc3cc(C(=O)O)ccc3nc21 | inconclusive: 25.1 µM [quencher, side channel, partial curve] | 
Cc1ccccc1CN1CCN(C(=O)c2cccc3ccccc23)CC1 | inconclusive: 11.2 µM [fluorescent, side channel, partial curve] | 
COc1ccccc1Nc1nc(-c2sc(NC(=O)c3ccc([N+](=O)[O-])cc3)nc2C)cs1 | inconclusive: 3.98 µM [quencher, side channel, partial curve] | 
O=C1CCN(C(=O)Nc2cccc(Cl)c2)N1 |  | inactive: 18%
Nc1ccc2nc(-c3ccc(Cl)cc3)[nH]c2c1 | inconclusive: 17.8 µM [quencher, side channel, partial curve] | 
Cc1cccc2c(C(=O)n3cccn3)cc(-c3ccccc3Cl)nc12 | inconclusive: 8.91 µM [quencher, side channel, partial curve] | 
O=C(CSc1nc2ccccc2c(=O)n1-c1ccccc1)c1c[nH]c2ccccc12 | inconclusive: 39.8 µM [inhibitor, single point] | 
COc1ccccc1NCC(O)Cn1c2ccccc2c2ccccc21 (centres undefined) | inconclusive: 28.2 µM [quencher, side channel, single point] | 
CCOC(=O)C(C)N1C(=O)S/C(=C/c2cc(C)n(-c3ccncc3)c2C)C1=O (centres undefined) | inconclusive: 31.6 µM [fluorescent, side channel, partial curve] | 
CCOc1cc(CNCCN2CCOCC2)ccc1OCc1ccccc1Cl | inconclusive: 10 µM [inhibitor, partial curve] | 
O=[N+]([O-])c1ccc(OCc2cnc(Cl)s2)c([N+](=O)[O-])c1 | inconclusive: 22.4 µM [quencher, side channel, single point] | 
O=C(CN1C(=O)C2CC=CCC2C1=O)Nc1nc2ccccc2s1 (centres undefined) | inconclusive: 25.1 µM [quencher, side channel, single point] | 
Cc1ccc(CNC(=O)CSc2nc3ccsc3c(=O)n2Cc2ccccn2)cc1 |  | inactive: -8.1%
CCC1(O)CC2CN(CCc3c([nH]c4ccccc34)[C@@](C(=O)OC)(c3cc4c(cc3OC)N(C)C3[C@]45CCN4CC=C[C@@](CC)([C@@H](OC(C)=O)[C@]3(O)C(=O)OC)[C@H]45)C2)C1 (some centres undefined) | inconclusive: 15.8 µM [fluorescent, side channel, partial curve] | 
COc1ccc(C(=O)c2cc3c(cc2[N+](=O)[O-])OCCO3)cc1 | inconclusive: 12.6 µM [quencher, side channel, single point] | 

SMILES | Potency | FP activity change, negative = inhibition
CCOc1ccc(Cn2nnc(C(=O)Nc3cc(OC)cc(OC)c3)c2N)cc1 | inconclusive: 20 µM [quencher, side channel, partial curve] | 
Cc1nc2ccccc2c2oc(C(=O)NCc3ccc4c(c3)OCO4)cc12 | inconclusive: 25.1 µM [inhibitor, single point] | 
Cc1ccc(NC(=S)NNC(=S)NC2CCCCC2)cc1 | inconclusive: 25.1 µM [quencher, side channel, single point] | 
CN(C)Cc1c(C(=O)N/N=C/c2cccc(OCc3ccc(F)cc3)c2)nnn1-c1nonc1N | inconclusive: 35.5 µM [inhibitor, single point] | 
Cc1ccc(S(=O)(=O)Nc2cc(C(=O)NCCN(C)C)ccc2N2CCCC2)cc1 | inconclusive: 35.5 µM [quencher, side channel, single point] | 
C#CCOCCOCCOCCNc1nc(N2CCN(C(=O)[C@H]([C@@H](C)CC)n3cc([C@@H](N)Cc4ccc(O)cc4)nn3)CC2)nc(N2CCN(C(=O)[C@H](Cc3ccc(O)cc3)n3cc([C@@H](N)CC(C)C)nn3)CC2)n1 | inconclusive: 1.41 µM [fluorescent, side channel, full curve] | 
Cc1cc(C)nc(NC(=NCCc2c[nH]c3ccccc23)NC(=O)Nc2ccc(Cl)c(Cl)c2)n1 | inconclusive: 10 µM [inhibitor, partial curve] | 
CSc1c(CC(=O)Nc2ccccc2)n(C)c2ccccc12 | inconclusive: 25.1 µM [quencher, single point] | 
CCCC(=O)Nc1nnc(SCC(=O)Nc2ccc3c(c2)OCCO3)s1 | inconclusive: 39.8 µM [fluorescent, side channel, single point] | 
O=C(Cc1ccc(Cl)cc1)NCc1ccccc1Cl | inconclusive: 39.8 µM [inhibitor, single point] | 
CCOC(=O)C1(Cc2cccc(OC)c2)CCN(Cc2cnc(C)s2)CC1 | inconclusive: 39.8 µM [fluorescent, side channel, single point] | 
Cc1ccc(-c2csc3ncn(CC#N)c(=O)c23)cc1C | inconclusive: 39.8 µM [quencher, side channel, single point] | 
Cc1c(C)c2c(OCC(=O)NCC(C)C)cc3c(c2oc1=O)CCC(C)(C)O3 | inconclusive: 14.1 µM [fluorescent, side channel, partial curve] | 
NC(=O)C1CCN(C(=O)CN2CCCc3ccccc32)CC1 | inconclusive: 12.6 µM [inhibitor, single point] | 
O=C(Nc1ccc(N2CCOCC2)c(Cl)c1)c1ccc([N+](=O)[O-])o1 | inconclusive: 14.1 µM [quencher, side channel, partial curve] | 
COc1ccc(OC)c(Nc2nc(-c3sc(NC(=O)C(C)(C)C)nc3C)cs2)c1 | inconclusive: 8.91 µM [quencher, side channel, partial curve] | 
O=C1/C(=C\c2ccc(Br)cc2)SC(=S)N1NS(=O)(=O)c1ccccc1 | inconclusive: 25.1 µM [quencher, side channel, single point] | 
COc1cc(/C=C2\SC(=Nc3ccccc3OC)NC2=O)ccc1O | inconclusive: 28.2 µM [quencher, side channel, partial curve] | 
Nc1scc2c(C(=O)N/N=C/c3ccc(Cl)cc3)nn(-c3ccccc3)c(=O)c12 | inconclusive: 8.91 µM [quencher, side channel, partial curve] | 
COC(=O)N1C(=O)[C@@](CC(C)C)(c2ccccc2)N1C(=O)OC | inconclusive: 3.55 µM [inhibitor, single point] | 
CC(C)(C)c1ccc(S(=O)(=O)NCC(=O)Nc2ccc(-c3nc4ccccc4s3)cc2)cc1 | inconclusive: 28.2 µM [inhibitor, single point] | 
CN1C2C(Br)CCCCN2c2ccc(F)cc2S1(=O)=O (centres undefined) | inconclusive: 39.8 µM [inhibitor, single point] | 
COCc1cc(C)nc2sc(C(=O)Nc3nccs3)c(N)c12 |  | inactive: -0.374% [at 11.7 µM]
CCc1ccc(NC(=O)Nc2ccsc2C(=O)OC)cc1 | inconclusive: 12.6 µM [quencher, partial curve] | 
O=C(N/N=C/c1cc([N+](=O)[O-])ccc1O)c1cccc(N2CCCC2=O)c1 | inconclusive: 3.16 µM [quencher, side channel, partial curve] | 
N#C/C(=C\c1ccc(N2CCCC2)c([N+](=O)[O-])c1)c1nc2ccccc2[nH]1 | inconclusive: 10 µM [quencher, side channel, partial curve] | 
OCC1(Cc2ccccc2)CCN(Cc2cc3ccccc3o2)CC1 | inconclusive: 4.47 µM [fluorescent, side channel, full curve, poor fit] | 
